{"source": "PubChem BioAssay AID2100", "about": "(National Center for Advancing Translational Sciences (NCATS), 2009)", "note": "The campaign covered roughly 300,000 compounds. About 1,200 (0.4%) were called active. Inconclusive means that the source gave no clear call. Such entries were picked first, then a sample of the others. The call rests on the fitted dose curve; in most records, active means well fitted inhibition curve with a large enough effect; inconclusive means small, poorly fitted or top-dose-only effect, or another doubt; inactive means no such curve, though single readings can be large or run the other way. Potencies of inconclusive entries are doubtful fits and often do not repeat. Potency means the concentration at half of the fitted maximal effect.", "data": [{"target": "Lysosomal alpha-glucosidase (Homo sapiens) (UniProt P10253)", "assay": "qHTS Assay for Inhibitors and Activators of Human alpha-Glucosidase Cleavage of Glycogen;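 on activity change, negative = inhibition: 0% = full enzyme reaction and -100% = no-enzyme basal signal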", "settings": "recombinant GAA, glycogen substrate, Amplex Red glucose oxidase fluorescence; activity change, negative = inhibition: at 76.4 µM (top of the series) unless noted", "procedure,_shortened": "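Natural-substrate format: glycogen cleavage by 4 nM human enzyme, glucose read by Amplex Red coupling (Ex 573, Em 610 nm). Normalized to enzyme and no-enzyme controls.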", "values": [{"smiles": "COc1ccc(-c2noc(-c3cc4ccccc4oc3=O)n2)cc1", "Potency": "inconclusive: 39.8 µM [inhibitor, single point]"}, {"smiles": "CC(=O)Oc1ccc(C(=O)[C@H]2[C@H]3C(=O)N(c4ccc5ccccc5c4)C(=O)[C@H]3[C@@H]3C=CC=NN32)cc1", "Potency": "inconclusive: 39.8 µM [activator, partial curve]"}, {"smiles": "Cc1cccc(-c2n[nH]c(=S)n2/N=C/c2cccs2)c1", "Potency": "inconclusive: 5.58 µM [inhibitor, full curve]"}, {"smiles": "COc1cccc(CNc2ncc(-c3ccccc3)n2C)c1", "Potency": "inconclusive: 22.4 µM [inhibitor, partial curve]"}, {"smiles": "Cc1[nH]n(-c2cccc(Cl)c2)c(=O)c1-c1ccc(Cl)cc1", "Potency": "inconclusive: 11.2 µM [inhibitor, full curve]"}, {"smiles": "Cc1c(NC(=O)c2ccc3c(c2)OCO3)cccc1-c1nc2ncccc2o1", "Potency": "inconclusive: 5.62 µM [inhibitor, full curve, poor fit]"}, {"smiles": "CC(C)N(Cc1cnn(C)c1)Cc1nc(COc2ccccc2)no1", "Potency": "inconclusive: 28.2 µM [inhibitor, partial curve]"}, {"smiles": "COc1cc(C2CC(=O)Oc3c2c(=O)[nH]c2ccccc32)cc(OC)c1OC", "note": "(configuration not stated)", "Potency": "active: 50.1 µM"}, {"smiles": "CCCOc1ccc(/C=N/Nc2cccc([N+](=O)[O-])c2)c(O)c1", "Potency": "inconclusive: 39.5 µM [inhibitor, single point]"}, {"smiles": "O=c1oc2c(CN3CCOCC3)c(O)c(Cl)cc2c2c1CCC2", "Potency": "inconclusive: 31.6 µM [activator, single point]"}, {"smiles": "CN(C)c1ccc(NC(=O)N2CCOCC2)cc1", "Potency": "active: 12.6 µM"}, {"smiles": "COC(=O)CNc1c(-c2ccccn2)nc2ccc(Br)cn12", "Potency": "inconclusive: 24.9 µM [inhibitor, single point]"}, {"smiles": "CCOC(=O)c1c(C)n(C)c2ccc(O)c(CN(CC)CC)c12", "Potency": "inconclusive: 25.1 µM [inhibitor, partial curve]"}, {"smiles": "CCCn1c(N)c(C(=O)CN2CCc3ccccc3C2)c(=O)n(C)c1=O", "Potency": "inconclusive: 35.5 µM [activator, partial curve]"}, {"smiles": "O=c1c(-c2ccccc2)c[nH]n1-c1cccc([N+](=O)[O-])c1", "Potency": "inconclusive: 28.2 µM [inhibitor, partial curve]"}, {"smiles": "Cc1c(Cl)cccc1NC(=O)CCOc1ccccc1", "Potency": "inactive"}, {"smiles": "O=C(CCN1CCCCC1)NNC(=S)NC(=O)c1ccc(Br)cc1", "Potency": "inconclusive: 39.5 µM [inhibitor, single point]"}, {"smiles": "O=C(N/N=C/c1ccccc1O)C(=O)Nc1ccccn1", "Potency": "inactive"}, {"smiles": "O=C(O)c1ccc(N2C(=O)CC(SC(=NCc3ccc4c(c3)OCO4)Nc3ccccc3)C2=O)cc1", "note": "(configuration not stated)", "Potency": "inactive"}, {"smiles": "Cc1c(-c2cccc(NC(=O)c3ccco3)c2)nc2ncccn12", "Potency": "inactive"}, {"smiles": "COc1ccc(NC(=S)NNC(=O)c2cccnc2)cc1OC", "Potency": "active: 3.95 µM"}, {"smiles": "O=C(CN1CC(=O)Oc2ccccc21)NCc1ccco1", "Potency": "active: 7.03 µM"}, {"smiles": "S=c1[nH]nc(Nc2cccc3ccccc23)s1", "Potency": "inactive"}, {"smiles": "CCOc1cc(NC(=S)Nc2ccccc2OC)c(OCC)cc1NC(=O)c1ccccc1C", "Potency": "inconclusive: 8.91 µM [inhibitor, partial curve]"}, {"smiles": "CC(C)(C)c1cc(CCC(=O)NCc2ccccn2)cc(C(C)(C)C)c1O", "Potency": "inconclusive: 35.5 µM [inhibitor, partial curve]"}, {"smiles": "Cc1cc(C)n(-c2nc3cc(Cl)ccc3nc2N2CCN(c3ccccc3F)CC2)n1", "Potency": "inactive"}, {"smiles": "Cc1ccc(-n2c(SCC(=O)NCc3ccco3)nc3nc4c(cc3c2=O)COC(C)(C)C4)cc1", "Potency": "inactive"}, {"smiles": "Cc1cc(NC(=O)c2ccccc2)sc1C", "Potency": "inconclusive: 15.7 µM [inhibitor, partial curve]"}, {"smiles": "CCOC(=O)C(=NCC1CCCO1)NNc1cc(Cl)ccc1Cl", "note": "(configuration not stated)", "Potency": "inconclusive: 39.8 µM [inhibitor, single point]"}, {"smiles": "Cc1ccc(-c2[nH]nc3c2C(C)C(C#N)=C(N)O3)cc1", "note": "(configuration not stated)", "Potency": "inconclusive: 12.6 µM [inhibitor, partial curve]"}, {"smiles": "Cc1nnsc1C(=O)NNc1ccc(C(C)(C)C)cc1", "Potency": "inconclusive: 50.1 µM [inhibitor, single point]"}, {"smiles": "COc1cccc(CN2CC(C(=O)NCc3cccc(N4CCCC4)c3)CCC2=O)c1", "note": "(configuration not stated)", "Potency": "inconclusive: 50.1 µM [inhibitor, single point]"}, {"smiles": "Cc1cccc(NC(=S)NNC(=O)c2cccc([N+](=O)[O-])c2)c1", "Potency": "inconclusive: 31.4 µM [inhibitor, partial curve]"}, {"smiles": "CCOc1ccc(-n2c(O)c(/C=N/NC(=O)C3COc4ccccc4O3)c3ccccc3c2=O)cc1", "note": "(configuration not stated)", "Potency": "inconclusive: 28.2 µM [inhibitor, partial curve]"}, {"smiles": "COc1cc(Cl)c(NC(=O)CC(C)S(=O)(=O)c2cc3c(cc2C)NC(=O)CO3)c(OC)c1", "note": "(configuration not stated)", "Potency": "inactive"}, {"smiles": "Brc1ccc(C2C3=C(Nc4ncnn42)c2ccccc2OC3c2ccncc2)cc1", "note": "(configuration not stated)", "Potency": "inactive"}, {"smiles": "Cc1ccc(Nc2nc(-c3c(C)n(C)n(-c4ccccc4)c3=O)c(C)s2)cc1", "Potency": "inconclusive: 35.5 µM [inhibitor, partial curve]"}, {"smiles": "COc1ccc(-c2cc(-c3cc(OC)ccc3O)[nH]n2)cc1", "Potency": "active: 19.8 µM"}, {"smiles": "COC(=O)NNC(=S)Nc1cc(OC)ccc1OC", "Potency": "inconclusive: 28 µM [inhibitor, single point]"}, {"smiles": "N#Cc1nc(-c2ccco2)oc1NCCc1ccccc1", "Potency": "inconclusive: 5.62 µM [inhibitor, partial curve]"}, {"smiles": "Cc1ccc(Nc2nc(CSc3nnc(-c4cccnc4)n3-c3ccccc3F)cs2)cc1", "Potency": "inconclusive: 31.6 µM [inhibitor, single point]"}, {"smiles": "O=[N+]([O-])/C(C=Nc1ccccc1O)=C\\Nc1ccccc1O", "Potency": "active: 3.55 µM"}, {"smiles": "CCCCNC(=S)NNC(=O)c1c(Cl)c(C)nn1C", "Potency": "inconclusive: 39.8 µM [inhibitor, partial curve]"}, {"smiles": "Cn1c(=O)c(=O)n(C)c2cc(S(=O)(=O)N3CCc4ccccc43)ccc21", "Potency": "inactive"}, {"smiles": "Cc1cccc(NC(=O)c2ccoc2C)n1", "Potency": "inactive"}, {"smiles": "O=C(Nc1ccc(Cl)c(Cl)c1)N(Cc1c[nH]c2ccccc12)C1CCCCC1", "Potency": "inactive"}, {"smiles": "COc1ccccc1N1CCN(c2c(CN3CCCC3)c(=O)oc3ccccc23)CC1", "Potency": "inconclusive: 39.8 µM [inhibitor, partial curve]"}, {"smiles": "CC(=O)N1CCn2c3c(c4cc(C)ccc42)CCCC31", "note": "(configuration not stated)", "Potency": "inconclusive: 39.5 µM [inhibitor, single point]"}, {"smiles": "CCCOc1ccc(C(=O)N2CCN(c3ccc(N)cc3Cl)CC2)cc1", "Potency": "inconclusive: 22.2 µM [inhibitor, partial curve]"}, {"smiles": "Nc1ncnc2c1ncn2[C@@H]1O[C@H](COP(=O)(O)O)[C@@H](O)[C@H]1O", "Potency": "inactive"}, {"smiles": "CCN1CCc2c(sc(-n3cccc3)c2C(C)NC(=O)Nc2cc(Cl)c(OC)cc2OC)C1", "note": "(configuration not stated)", "Potency": "inactive"}, {"smiles": "Cc1cc(O)c(Oc2cc(C)cc(O)c2O)c(O)c1", "Potency": "inconclusive: 3.98 µM [inhibitor, full curve]"}, {"smiles": "C/C(Cn1cnc([N+](=O)[O-])n1)=N\\NC(=O)c1ccccc1O", "Potency": "inconclusive: 22.4 µM [inhibitor, partial curve]"}, {"smiles": "CCCCOC(=O)CSC1=C(C#N)C(c2ccccc2OCC)C(C#N)C(=O)N1", "note": "(configuration not stated)", "Potency": "inconclusive: 28.2 µM [activator, partial curve]"}, {"smiles": "CCOC(=O)c1cc2c(=O)n3ccccc3nc2n(CCOC)c1=NC(=O)c1cc2ccccc2o1", "Potency": "inconclusive: 11.2 µM [inhibitor, partial curve]"}, {"smiles": "O=c1c(N2CCOCC2)nsnc1N1CCOCC1", "Potency": "inactive"}, {"smiles": "CC(=O)c1c(C)n(C)c2ccc(OC(=O)c3ccc([N+](=O)[O-])cc3)cc12", "Potency": "inconclusive: 5.01 µM [inhibitor, single point]"}, {"smiles": "CCCc1cc(=O)[nH]c(Nc2ccccc2O)n1", "Potency": "inconclusive: 17.8 µM [inhibitor, partial curve]"}, {"smiles": "CCc1cc2c(Nc3ccccc3O)nc(C)nc2s1", "activity change, negative = inhibition": "inactive: -18.2% [at 15.3 µM]"}, {"smiles": "Cc1ccc(O)c(NC(=S)NC(=O)CC(C)C)c1", "Potency": "inconclusive: 22.4 µM [inhibitor, partial curve]"}, {"smiles": "COc1ccccc1CNc1ccc(CNc2ncn[nH]2)cc1", "Potency": "inactive"}, {"smiles": "Cc1cc2nc(CSc3ccccc3)cc(=O)n2[nH]1", "Potency": "inactive"}, {"smiles": "Cc1ccc(NC(=S)NNC(=O)c2ccccc2O)c(C)c1", "Potency": "inconclusive: 39.5 µM [inhibitor, single point]"}, {"smiles": "CC(c1cc2ccccc2s1)N(O)C(N)=O", "note": "(configuration not stated)", "Potency": "inconclusive: 12.6 µM [inhibitor, partial curve]"}, {"smiles": "CN1CCc2c(sc3c2C(=O)NC(c2ccco2)N3)C1", "note": "(configuration not stated)", "Potency": "inconclusive: 3.55 µM [inhibitor, partial curve]"}, {"smiles": "O=[N+]([O-])c1cc(/C=N/Nc2nc3ccccc3[nH]2)c(O)cc1O", "Potency": "inconclusive: 35.5 µM [inhibitor, single point]"}, {"smiles": "CCN(CC)Cc1cc(O)c(CN(CC)CC)cc1O", "Potency": "inactive"}, {"smiles": "O=C(CSc1nnc(NC(=O)c2ccccc2C(=O)O)s1)Nc1ccccc1Cl", "Potency": "inconclusive: 39.5 µM [inhibitor, single point]"}, {"smiles": "O=C(NN=C1CCC(=NNC(=O)c2ccccn2)CC1)c1ccccn1", "Potency": "inconclusive: 8.91 µM [inhibitor, full curve]"}, {"smiles": "COCCNC(=O)c1onc(CSc2cc(C)cc(C)c2)c1C(=O)O", "Potency": "inconclusive: 39.8 µM [inhibitor, single point]"}, {"smiles": "O=C(NNc1ncccc1-n1cccc1)c1ccc(Cl)cc1", "Potency": "inconclusive: 11.1 µM [inhibitor, partial curve]"}, {"smiles": "O=C(Nc1ccc(Cl)c(Cl)c1)Nc1ccccc1O", "Potency": "inconclusive: 7.88 µM [inhibitor, full curve]"}]}]}
